The supplement of paper PMC9334596
Several values for one entry are separate records, joined by “and”; a condition that tells them apart may be missing. Equal entries are not always repeated. Whole data set: some 5,300 compounds, median “PER2::LUC luminescence relative to vehicle control” near 0.96, cut for the highest 2% near 1.3. The list shows a part of the results.

Tested on: mPer2Luc MEF
Experiment: PER2::LUC luminescence relative to vehicle control (fold of vehicle); higher = higher PER2::LUC reporter signal
Settings: 10 µM
Outline: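 The value is PER2::LUC luminescence expressed as fold of vehicle control. Mouse embryonic fibroblasts carrying the mPer2Luc reporter were seeded at ~3000 cells per well in 384-well plates and grown in DMEM with 10% FBS at 37 °C and 5% CO2. Compounds from commercial libraries were added at 10 μM 48 h after seeding, and luminescence was read with the ONE-Glo luciferase assay system 24 h and 30 h after treatment, followed by an alamarBlue viability assay.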

SMILES | PER2::LUC luminescence (time after treatment 24 h) | PER2::LUC luminescence (time after treatment 30 h)
Nc1nc(NCCc2ccc(O)cc2)nc2nc(-c3ccco3)nn12 | 1.01 | 1.03
CC1=C(CO)C(=O)O[C@@H]([C@@H](C)[C@H]2CC[C@H]3[C@@H]4C[C@H]5O[C@]56[C@@H](O)C=CC(=O)[C@]6(C)[C@H]4CC[C@]23C)C1 | 0.634 | 0.708
C[C@H](O)C(=O)Nc1c(I)c(C(=O)NC(CO)CO)c(I)c(C(=O)NC(CO)CO)c1I | 0.785 | 1.12
N[C@H](C(=O)O)c1cc(O)cc(O)c1 | 0.941 | 0.928
CC(=O)OC1CC2CCC1(C)C2(C)C (centres undefined) | 1.18 | 1
c1ccc(C(NCc2cccnc2)(c2ccccc2)c2ccccc2)cc1 | 1.07 | 1.14
Cc1cccc(C#Cc2ccccc2)n1 | 1.56 and 1.59 and 1.5 | 1.16 and 1.75 and 1.47
O=C(Nc1ncc([N+](=O)[O-])s1)c1ccc([N+](=O)[O-])c(Cl)c1 | 0.928 | 1.22
O=c1cc[nH]c(=S)[nH]1 | 1.04 | 1.03 and 0.907
C=CC(=O)Nc1ccc2ncnc(Nc3cccc(Br)c3)c2c1 | 0.541 | 0.431
CCC(=O)c1c(O)cc(O)cc1O | 0.893 | 1.02
FC(F)(Cl)C(F)(F)Cl | 0.958 | 0.896
Nc1nc2[nH]c(=O)cnc2c(=O)[nH]1 | 1.04 | 0.986
CC(C)(C)[C@]1(O)CCN2C[C@H]3c4ccccc4CCc4cccc(c43)[C@@H]2C1 (racemic) | 0.848 | 0.89
CC(C)(C)[C@]1(O)CCN2C[C@H]3c4ccccc4CCc4cccc(c43)[C@@H]2C1 | 0.872 | 0.922
O=C(/C=C\n1cnc(-c2cc(C(F)(F)F)cc(C(F)(F)F)c2)n1)NNc1ccccn1 | 0.279 | 0.224
CC1Cc2ccccc2N1NC(=O)c1ccc(Cl)c(S(N)(=O)=O)c1 (centres undefined) | 1.14 | 0.894
CCOCC(O)COc1ccc(NC(=O)CC[S+](C)C)cc1 (centres undefined) | 1.06 | 0.952
CC(=O)O[C@@H]1CC2C(C)(C)C(=O)C3OC3[C@]2(C)C2CC[C@@]3(C)[C@H](c4ccoc4)OC(=O)C4OC43[C@@]21C (some centres undefined) | 0.987 | 1.03
Nc1ccc(S(=O)(=O)Nc2ccnn2-c2ccccc2)cc1 | 1.09 | 1.04
CN1CCN(CCOc2cc(OC3CCOCC3)c3c(Nc4c(Cl)ccc5c4OCO5)ncnc3c2)CC1 | 0.346 | 0.318

SMILES | PER2::LUC luminescence (time after treatment 24 h) | PER2::LUC luminescence (time after treatment 30 h)
O=C(NCC(O)CO)c1c(I)c(C(=O)NCC(O)CO)c(I)c(N(CCO)C(=O)CO)c1I (centres undefined) | 0.965 | 0.962
CO/N=C(\C(=O)N[C@@H]1C(=O)N2C(C(=O)O)=C(COC(N)=O)CS[C@H]12)c1ccco1 | 1.04 | 0.972
O=C(O)C1=CCCNC1 | 0.896 and 0.955 | 1.01 and 0.937
CC[C@H]1OC(=O)C[C@@H](O)[C@H](C)[C@@H](O[C@@H]2O[C@H](C)[C@@H](O)[C@H](N(C)C)[C@H]2O)[C@@H](CCN2CCCCC2)C[C@@H](C)C(=O)/C=C/C(C)=C/[C@@H]1CN1CCCCC1 | 0.885 | 0.882
NCCNC(=O)c1ncsc1-c1cccc(F)c1 | 0.92 | 0.864
Cc1cc(CC(=O)O)n(C)c1C(=O)c1ccc(Cl)cc1 | 0.936 | 1.05
CCCCCCCCCCCCCCCC(=O)O[C@@H]1[C@@H](O)[C@@H](O)[C@@H]([C@H](NC(=O)[C@@H]2C[C@@H](CCC)CN2C)[C@H](C)Cl)O[C@@H]1SC | 1.01 | 0.969
COC(=O)CC[C@@H](C)[C@H]1CC[C@H]2[C@@H]3[C@H](O)C[C@@H]4C[C@H](O)CC[C@]4(C)[C@H]3C[C@H](O)[C@]12C | 0.817 | 0.831
COc1c(O)cccc1O | 0.979 | 0.948
CC(=O)Nc1ncc([N+](=O)[O-])s1 | 1.33 and 1.09 | 0.865 and 1.09
O=C(NCCCNc1nc(Nc2cccc(CN3CCOCC3)c2)ncc1C1CC1)C1CCC1 | 0.596 | 0.603
CC12CCC(CC1)C(C)(C)O2 | 1.01 | 0.888
O=C1CN(/N=C/C=C/c2ccc([N+](=O)[O-])o2)C(=O)N1 | 1.04 | 1.01
C[C@H](CCC(=O)O)[C@H]1CC[C@H]2[C@@H]3CC[C@@H]4C[C@H](O)CC[C@]4(C)[C@H]3C[C@H](O)[C@]12C | 1.04 | 1.09
NC1(C(=O)O)CC(C(=O)O)C1 (centres undefined) | 1.01 | 1.04
CC(C)C[C@@H]1NC(=O)[C@H](CCCN)NC(=O)[C@H](C(C)C)NC(=O)[C@H](Cc2ccc(O)cc2)N[C@@H](CCC(=O)O)C(=O)N[C@@H](CC(N)=O)C(=O)[C@@H](Cc2ccccc2)NC(=O)[C@H](Cc2ccccc2)NC(=O)[C@@H]2CCCN2C(=O)[C@@H](Cc2ccccc2)NC1=O | 0.303 | 0.445
COc1cc(-c2cn(C3CCc4c(F)cccc4N(CC(F)(F)F)C3=O)nn2)ccc1-n1cnc(C)c1 (centres undefined) | 0.819 | 0.835
CC#CCOC(=O)C1=CCCN(C)C1 | 0.881 | 1
CCC(=O)Oc1ccc2c(c1)CCC1C2CCC2(C)C(OC(=O)CC)CCC12 (centres undefined) | 1.04 | 1.05
CC(C)=CCC/C(C)=C/CC/C(C)=C/CSCC(=O)O | 1.06 | 0.985
COc1ccc2cc(C(C)C(=O)O)ccc2c1 (centres undefined) | 0.919 | 1.08

SMILES | PER2::LUC luminescence (time after treatment 24 h) | PER2::LUC luminescence (time after treatment 30 h)
Nc1ncnc2c1c(I)cn2[C@@H]1O[C@H](CO)[C@@H](O)[C@H]1O | 0.73 | 0.848
Nc1ncnc2c1nc(Sc1ccc(Cl)cc1)n2C1OC2COP(=O)(O)O[C@@H]2[C@@H]1O (some centres undefined) | 1.11 | 1.04
CC(=O)Nc1nc(C)c(-c2ccc(Cl)c(S(=O)(=O)NCCO)c2)s1 | 0.989 | 0.915
C[C@@H](Nc1cc(NS(=O)(=O)N2CCC2)nc(SCc2cccc(F)c2F)n1)[C@@H](O)CO | 1.03 | 1
COc1cc(-c2coc3cc(O[C@@H]4O[C@H](CO)[C@@H](O)[C@H](O)[C@H]4O)c(OC)c(O)c3c2=O)cc(O)c1OC | 0.773 | 1.31
CCCCN1CCCC1CNC(=O)c1cc(C#N)c2ccccc2c1OC (centres undefined) | 1 | 1.58
O=c1c(O)c(-c2ccccc2)oc2cc(O)ccc12 | 1.13 | 1.18
O=c1c(-c2ccc(O)cc2)coc2cc(O[C@@H]3O[C@H](CO)[C@@H](O)[C@H](O)[C@H]3O)ccc12 | 1.25 | 1.39
CC(C)(O)c1ccccc1Cc1ccccc1 | 0.709 | 1.18
COc1ccc(C2CNC(=O)C2)cc1OC1CCCC1 (centres undefined) | 0.93 | 0.868
O=c1c(O)c(-c2ccc(O)cc2O)oc2cc(O)cc(O)c12 | 0.955 | 0.963
CC[N+]1(C)C2CCC1CC(OC(=O)C1CCC(C(=O)OC3CC4CCC(C3)[N+]4(C)CC)(c3ccccc3)c3ccccc31)C2 (centres undefined) | 0.898 | 0.961
CC(/C=C/c1cccc(Oc2ccc(F)cc2)c1)N(O)C(N)=O (centres undefined) | 1.16 | 0.926
OC[C@H]1O[C@@H](Oc2cc(O)cc(/C=C/c3ccc(O)cc3)c2)[C@H](O)[C@@H](O)[C@@H]1O | 1.22 | 1.07
CO/N=C(\C(=O)N[C@@H]1C(=O)N2C(C(=O)[O-])=C(C[n+]3ccc(N)n3CCO)CS[C@H]12)c1csc(N)n1 | 1.12 | 1.1
CCOC(=O)[C@H](CCc1ccccc1)N[C@H]1CS[C@H](c2cccs2)CN(CC(=O)O)C1=O | 1.15 | 1.18
NC(=O)c1ccc([N+](=O)[O-])cc1Cl | 0.912 and 0.987 | 1.06 and 0.911
O=C1OCCN1/N=C/c1ccc([N+](=O)[O-])o1 | 1.03 | 1.23
O=C(/C=C/C(=O)Oc1ccccc1C(=O)O)Oc1ccccc1C(=O)O | 1.02 | 0.893
Oc1ccc([C@@H]2CNCc3sccc32)cc1O | 0.871 | 0.847
CN(C)N(C)C(=O)[C@@]1(Cc2ccccc2)CCCN(C(=O)[C@@H](Cc2c[nH]c3ccccc23)NC(=O)C(C)(C)N)C1 | 1 | 0.972

SMILES | PER2::LUC luminescence (time after treatment 24 h) | PER2::LUC luminescence (time after treatment 30 h)
CCOC(=O)Oc1c(OC)cc(C(=O)O[C@@H]2C[C@@H]3CN4CCc5c([nH]c6cc(OC)ccc56)[C@H]4C[C@@H]3[C@H](C(=O)OC)[C@H]2OC)cc1OC | 1.03 | 1.07
Cc1c(O)c(=O)ccn1C | 1 and 1.13 | 0.859 and 1.1
CC(C)C[C@H](NP(=O)(O)O[C@H]1O[C@H](C)[C@@H](O)[C@H](O)[C@@H]1O)C(=O)N[C@@H](Cc1c[nH]c2ccccc12)C(=O)O | 1.03 | 1.1
O=S(=O)(O)c1cc(O)ccc1O | 1.05 | 1.01
Cc1ccc([N+](=O)[O-])cc1S(=O)(=O)N(C)C | 0.523 | 0.788
O=C1C[C@@H](c2ccc(O)cc2)Oc2cc(O)cc(O)c21 | 1.46 | 1.25
CCC(=O)O[C@]1(C(=O)CCl)[C@@H](C)C[C@H]2[C@@H]3CCC4=CC(=O)C=C[C@]4(C)[C@@]3(F)[C@@H](O)C[C@@]21C | 0.711 | 1.08
c1ccc([C@H]2CN3CCSC3=N2)cc1 | 0.959 | 0.727
N[C@@H](CCCP(=O)(O)O)C(=O)O | 1.02 | 1.04
COc1cc2c(Oc3ccc4[nH]c(C)cc4c3F)ncnc2cc1OCCCN1CCCC1 | 0.109 | 0.081
C[C@H]1CNCCCN1S(=O)(=O)c1cccc2cncc(F)c12 | 0.787 | 0.723
O=C(O)c1cc(-c2ccccc2)nc2ccccc12 | 0.91 | 1.12
N[C@@H](Cc1ccccc1)C(=O)O | 0.855 | 0.872
CC(=O)O[C@]1(C(C)=O)CC[C@H]2[C@@H]3C[C@H](C)C4=CC(=O)CC[C@]4(C)[C@H]3CC[C@@]21C | 0.862 and 0.706 | 1.06 and 1.03
CC(C)NCC(O)c1ccc2ccccc2c1 (centres undefined) | 1.11 and 0.911 and 0.893 | 0.959 and 0.86 and 0.832
CC(C)(C)c1nc2c3cc[nH]c(=O)c3c3cc(F)ccc3c2[nH]1 | 0.802 | 0.906
Nc1nc2c(nc(Br)n2C2OC3COP(=O)(O)O[C@@H]3C2O)c(=O)[nH]1 (some centres undefined) | 0.859 | 0.943
N[C@H](C(=O)O)[C@H](O)c1ccc(O)c(O)c1 | 0.879 | 0.966
CC(=O)O[C@@H]1C[C@@]23C[C@@]24CC[C@H](O[C@@H]2OC[C@@H](O)[C@H](O)[C@H]2O)C(C)(C)[C@@H]4CC[C@H]3[C@]2(C)C[C@@H]3O[C@]4(C[C@@H](C)[C@@H]3[C@@]12C)O[C@H](O)[C@@]1(C)O[C@@H]41 | 0.888 | 0.982
